# Assay results: PubChem BioAssay AID588795 (National Center for Advancing Translational Sciences (NCATS), 2011)
# Screen size: about 390,000 compounds; about 1,400 (0.36%) were called active. This list was built around the results that the source calls inconclusive (neither active nor inactive); the mix of calls is not that of the screen. Calls come from the whole dose curve; as a rule, active = well fitted inhibition curve with a large enough effect; inconclusive = small, poorly fitted or top-dose-only effect; inactive = no such curve, though single readings can be large or run the other way. Where the call is inconclusive, the potency comes from a doubtful curve fit.
# Target: Flap endonuclease 1 (Homo sapiens) (UniProt P39748)
# Sequence of UniProt P39748 (P39748 whole entry, looked up): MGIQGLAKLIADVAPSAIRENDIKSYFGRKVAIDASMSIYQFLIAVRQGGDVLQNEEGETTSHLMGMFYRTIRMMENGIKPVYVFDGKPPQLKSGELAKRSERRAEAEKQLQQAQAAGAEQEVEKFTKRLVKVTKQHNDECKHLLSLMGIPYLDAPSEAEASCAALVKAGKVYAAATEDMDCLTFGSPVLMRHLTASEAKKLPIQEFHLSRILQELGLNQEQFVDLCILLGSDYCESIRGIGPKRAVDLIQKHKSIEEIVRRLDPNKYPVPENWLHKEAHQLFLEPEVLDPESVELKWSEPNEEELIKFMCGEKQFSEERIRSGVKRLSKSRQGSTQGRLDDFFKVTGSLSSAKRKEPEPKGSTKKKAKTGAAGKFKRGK
# Assay: qHTS Assay for the Inhibitors of Human Flap endonuclease 1 (FEN1). Note: nearly all actives have a fitted effect of over 65% in size.
# Conditions: Recombinant FEN1 flap cleavage, fluorescence, 15 min; series mostly up to 114 µM; activity change, negative = inhibition: at the top concentration
# Procedure, shortened: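 In this screen, 50 nM flap DNA substrate was added to 10 nM FEN1 pretreated with compound for 15 min at room temperature; cleavage was followed with reads at 0 and 15 min, and Hill fitting gave concentration–response parameters.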
# % is set by controls: 0 for no effect and ±100 for the full control effect; potency is the fitted concentration of half-maximal effect; tags give direction and shape of the fitted curve.
Structure (SMILES),Potency,"activity change, negative = inhibition"
CCn1c(=O)c2cc(C(=O)NCCCN3CCC(C)CC3)sc2c2ccccc21,"inconclusive: 50.1 µM [inhibitor, partial curve, poor fit]",–
CCN1CC(CN(C)Cc2cn(-c3cccc(C)c3)nc2-c2cccc(F)c2)CC1=O (stereo not given),"inconclusive: 89.1 µM [inhibitor, partial curve, poor fit]",–
CCc1ccc(N=C2NC(=O)/C(=C/c3ccc(OCC(=O)O)cc3)S2)cc1,"inconclusive: 89.1 µM [inhibitor, single point]",–
O=C(COC(=O)c1ccc(=O)[nH]c1)Nc1cccc(S(=O)(=O)N2CCOCC2)c1,–,inactive: -13.4%
O=C(N/N=C/c1ccncc1)c1cccc(S(=O)(=O)Nc2ccc(Cl)cc2)c1,"inconclusive: 56.2 µM [inhibitor, partial curve, poor fit]",–
Cc1cc2nc3c(=O)n(C4CCCCC4)c(=O)[nH]c3nc2cc1N,"inconclusive: 89.1 µM [inhibitor, single point]",–
CC(=O)N1c2ccc(S(=O)(=O)NCCC(=O)N(C)C3CCCCC3)cc2CC1C (stereo not given),"inconclusive: 100 µM [inhibitor, single point]",–
CCn1c(/C=C/Nc2ccccc2)[n+](CC)c2cc(Cl)c(Cl)cc21,"inconclusive: 89.1 µM [inhibitor, single point]",–
Cc1ccnc2nc(C(=O)OCC(=O)c3c[nH]c4ccccc34)nn12,"inconclusive: 50.1 µM [inhibitor, partial curve, poor fit]",–
O=C(NCc1ccco1)c1sc(=S)n2c1[nH]c(=O)c1ccccc12,"inconclusive: 79.4 µM [inhibitor, single point]",–
Cc1ccc(Cl)cc1NC(=O)C(C)n1nc(-c2ccccc2)ccc1=O (stereo not given),–,inactive: -21%
NC(=O)c1c(NC(=O)CN2C(=O)NC(Cc3ccccc3)C2=O)sc2c1CCC2 (stereo not given),–,inactive: 3.77%
Cc1cc(C)c(C(=O)N2CCCC(N3CCN(c4cccc(C(F)(F)F)c4)CC3)C2)o1 (stereo not given),"inconclusive: 56.2 µM [inhibitor, partial curve, poor fit]",–
S=c1[nH]c(=S)c2n[nH]nc2[nH]1,"inconclusive: 89.1 µM [inhibitor, single point]",–
Cc1ccc(CNC(=O)c2ccc3c(=O)n(CCCN4CCCC4=O)c(=S)[nH]c3c2)cc1,–,inactive: -11%
CC(=O)Nc1c(O)nc(SCC(=O)Nc2nnc(SCc3ccccc3)s2)[nH]c1=O,"inconclusive: 79.4 µM [inhibitor, partial curve, poor fit]",–
CCc1cccc(-n2nnc(-c3nsc(NC(=O)c4cccs4)n3)c2C)c1,–,inactive: 1.44%
N#Cc1cccc(NC(=O)CSc2sc3c(O)cc(=O)[nH]c3c2C#N)c1,"inconclusive: 50.1 µM [inhibitor, partial curve]",–
COc1ccc(CCN2C(=O)C3C4CC(C5C(C(=O)NN)=NOC45)C3C2=O)cc1OC (stereo not given),–,inactive: -9.85%
CCOc1cc(/C=N/NC(N)=S)cc(Br)c1OCc1ccccc1C,"inconclusive: 89.1 µM [inhibitor, partial curve, poor fit]",–
COc1ccc(C(=O)OC2=C(C(=O)c3ccccc3)N(C)S(=O)(=O)c3ccccc32)cc1OC,"inconclusive: 100 µM [inhibitor, single point]",–
COc1ccc(Cc2nnc(NC(=O)Cc3cccs3)s2)cc1,active: 56.2 µM,–

Structure (SMILES),Potency,"activity change, negative = inhibition"
COc1ccc(N2CC(NC(=O)CCc3ccccc3)CC2=O)cc1OC (stereo not given),–,inactive: -5.31%
CCCn1nc2cc(C(=O)NCc3ccc(OC(F)(F)F)cc3)ccc2c1OCC,"inconclusive: 39.8 µM [inhibitor, partial curve, poor fit]",–
O=C(O)c1ccc(Nc2nc(-c3cc4ccccc4oc3=O)cs2)cc1O,"inconclusive: 39.8 µM [inhibitor, partial curve]",–
CC(=O)OCCNc1nc(-c2ccccc2)nc2ccccc12,–,inactive: 14.5%
C/C(=N\OCc1ccc(C#N)cc1)c1ccc(S(=O)(=O)N(C)C)cc1,"inconclusive: 89.1 µM [inhibitor, partial curve, poor fit]",–
Cc1ccccc1C(=O)Nc1ccc2c(C#N)c3nc4ccccc4nc3n2c1,"inconclusive: 79.4 µM [inhibitor, partial curve, poor fit]",–
O=[N+]([O-])c1ccc(-c2cc3ccccc3[nH]2)cc1,–,inactive: 6.69%
Cc1nc(Cl)cc(N/N=C/c2ccc(O)cc2O)n1,"inconclusive: 50.1 µM [inhibitor, partial curve, poor fit]",–
Cc1ccc(N)cc1O,–,inactive: -19.1%
CCS(=O)(=O)N1CCc2cc(C(=O)NCc3ccccc3)ccc21,–,inactive: -7.84%
Oc1ccc(Nc2nc3ccccc3nc2Nc2ccc(O)cc2)cc1,"inconclusive: 56.2 µM [inhibitor, partial curve, poor fit]",–
Oc1c(N=Nc2ccccn2)ccc2ccccc12,"inconclusive: 79.4 µM [inhibitor, partial curve, poor fit]",–
CNC(C)C#Cc1ccc2sc3cccc(OC)c3c(=O)c2c1 (stereo not given),"inconclusive: 39.8 µM [inhibitor, partial curve, poor fit]",–
O=C(/C=C/c1ccco1)c1ccc(NC(=O)C23CC4CC(CC(C4)C2)C3)cc1,"inconclusive: 89.1 µM [inhibitor, partial curve, poor fit]",–
C=CCn1c(SCC(C)=O)nc2scc(-c3ccco3)c2c1=O,"inconclusive: 50.1 µM [inhibitor, partial curve, poor fit]",–
O=C(Nc1cccc(S(=O)(=O)N2CCOCC2)c1)c1ccc(Cl)c([N+](=O)[O-])c1,"inconclusive: 89.1 µM [inhibitor, partial curve, poor fit]",–
CCN(CCNC(=O)Nc1ccc(Cl)cc1)c1ccccc1,"inconclusive: 56.2 µM [inhibitor, partial curve, poor fit]",–
COc1ccc(OC)c(Nc2nc(NCc3ccco3)c3ccccc3n2)c1,"inconclusive: 35.5 µM [inhibitor, partial curve, poor fit]",–
Oc1ccc(Cl)cc1/C=C/c1ccc2cccc(O)c2n1,"inconclusive: 79.4 µM [inhibitor, partial curve, poor fit]",–
CCOc1ccccc1NC(=O)c1nc2nc(C)cc(C(F)F)n2n1,–,inactive: 0.278%
O=c1cc(CSc2nnc(COc3ccccc3Cl)o2)nc2sccn12,–,inactive: -1.41%
O=C(CCCN1C(=O)/C(=C\c2ccccc2)SC1=S)Nc1ccc(C(=O)O)cc1,–,inactive: -0.757%

Structure (SMILES),Potency,"activity change, negative = inhibition"
O=[N+]([O-])c1ccccc1-c1ccc(C(=S)N2CCN(c3ccccc3)CC2)o1,–,inactive: -26.4%
O=C(NCCc1nc2ccccc2n1CCCOc1ccc(Cl)cc1)C1CCCCC1,"inconclusive: 56.2 µM [inhibitor, partial curve, poor fit]",–
CCN(CC)CCOC(=O)c1ccc(NC(=O)CCCN2C(=O)S/C(=C/c3ccc(OC)cc3)C2=S)cc1,"inconclusive: 89.1 µM [inhibitor, single point]",–
N#Cc1ccc(Nc2nc(-c3ccc(O)cc3O)cs2)cc1C(F)(F)F,"inconclusive: 70.8 µM [inhibitor, single point]",–
COc1cccc(OCC(O)CN2CCN(c3ccc(Cl)cc3)CC2)c1 (stereo not given),"inconclusive: 89.1 µM [inhibitor, partial curve, poor fit]",–
CC(C)N(CCC(=O)c1ccc2ccccc2c1)Cc1ccccc1,"inconclusive: 89.1 µM [inhibitor, single point]",–
NC(=S)N/N=C/c1ccc(-c2ccc([N+](=O)[O-])cc2)o1,–,inactive: -0.0286%
COc1ccc(-n2c(=O)c3ccccc3n(Cc3ccccc3C)c2=O)c(OC)c1,–,inactive: -23.4%
CC1(C)CC(=O)C2=C(C1)NC(Nc1nc3ccccc3o1)=NC2c1ccccc1Cl (stereo not given),–,inactive: -6.61%
O=c1c2ccccc2n(Cc2ccccc2F)c(=O)n1-c1cccc(F)c1,–,inactive: 4.68%
Cc1ccc(S(=O)(=O)N2CCN(CCOc3c(Cl)cccc3Cl)CC2)cc1C,–,inactive: 8.54%
Cc1ccc(CN2C(=O)C(C)Nc3ncnc(N4CCN(c5ccccn5)CC4)c32)cc1 (stereo not given),"inconclusive: 56.2 µM [inhibitor, partial curve, poor fit]",–
Cc1ccc(NC(=O)CS(=O)CC(=O)Nc2ccc(N3CCOCC3)cc2)cc1Cl (stereo not given),"inconclusive: 89.1 µM [inhibitor, single point]",–
O=C(O)/C=C/C(=O)c1ccc2c(c1)CCc1ccccc1-2,"inconclusive: 50.1 µM [inhibitor, partial curve]",–
Cc1ccc(N(C(=O)c2snc(C(N)=O)c2N)C(C(=O)NCCC(C)C)c2ccco2)cc1 (stereo not given),"inconclusive: 79.4 µM [inhibitor, partial curve, poor fit]",–
O=C1Nc2ccc3sc4ccccc4c3c2C1=O,"inconclusive: 50.1 µM [inhibitor, partial curve]",–
CCCCC1=CC2=CC(=O)C(C)(OC(=O)CC)C(=O)C2=CO1 (stereo not given),"inconclusive: 56.2 µM [inhibitor, partial curve, poor fit]",–
Cc1ccc(N2C(=O)c3[nH]nc(-c4ccc(Cl)cc4)c3C2c2ccc(F)cc2)cc1 (stereo not given),"inconclusive: 31.6 µM [inhibitor, partial curve, poor fit]",–
CC1CCCC(NC(=O)COC(=O)c2ccc([N+](=O)[O-])o2)C1C (stereo not given),"inconclusive: 14.1 µM [inhibitor, full curve, poor fit]",–
COC(=O)C1=C(C)N(c2ccccc2)C(=S)NC1c1ccccc1C(F)(F)F (stereo not given),"inconclusive: 44.7 µM [inhibitor, partial curve, poor fit]",–
COc1ccc(/C=N\NC(=O)c2cc(O)c(O)c(O)c2)cc1CN1CCN(c2ccc(F)cc2)CC1,active: 14.1 µM,–
